{"source": "paper PMC4336329", "about": "(PLoS ONE, 2015)", "note": "Among all 310,000 compounds or so, about 14,000 (4.5%) showed an effect of 50% or more. The effect is printed as a negative number. The list shows a part of the results.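 Note: peak tail current of the secondary pulse compared with the same well before compound.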", "data": [{"biological_target": "human ether-à-go-go-related gene (hERG) potassium channel (human, UniProt Q12809)", "sequence (Q12809 whole entry, looked up)": "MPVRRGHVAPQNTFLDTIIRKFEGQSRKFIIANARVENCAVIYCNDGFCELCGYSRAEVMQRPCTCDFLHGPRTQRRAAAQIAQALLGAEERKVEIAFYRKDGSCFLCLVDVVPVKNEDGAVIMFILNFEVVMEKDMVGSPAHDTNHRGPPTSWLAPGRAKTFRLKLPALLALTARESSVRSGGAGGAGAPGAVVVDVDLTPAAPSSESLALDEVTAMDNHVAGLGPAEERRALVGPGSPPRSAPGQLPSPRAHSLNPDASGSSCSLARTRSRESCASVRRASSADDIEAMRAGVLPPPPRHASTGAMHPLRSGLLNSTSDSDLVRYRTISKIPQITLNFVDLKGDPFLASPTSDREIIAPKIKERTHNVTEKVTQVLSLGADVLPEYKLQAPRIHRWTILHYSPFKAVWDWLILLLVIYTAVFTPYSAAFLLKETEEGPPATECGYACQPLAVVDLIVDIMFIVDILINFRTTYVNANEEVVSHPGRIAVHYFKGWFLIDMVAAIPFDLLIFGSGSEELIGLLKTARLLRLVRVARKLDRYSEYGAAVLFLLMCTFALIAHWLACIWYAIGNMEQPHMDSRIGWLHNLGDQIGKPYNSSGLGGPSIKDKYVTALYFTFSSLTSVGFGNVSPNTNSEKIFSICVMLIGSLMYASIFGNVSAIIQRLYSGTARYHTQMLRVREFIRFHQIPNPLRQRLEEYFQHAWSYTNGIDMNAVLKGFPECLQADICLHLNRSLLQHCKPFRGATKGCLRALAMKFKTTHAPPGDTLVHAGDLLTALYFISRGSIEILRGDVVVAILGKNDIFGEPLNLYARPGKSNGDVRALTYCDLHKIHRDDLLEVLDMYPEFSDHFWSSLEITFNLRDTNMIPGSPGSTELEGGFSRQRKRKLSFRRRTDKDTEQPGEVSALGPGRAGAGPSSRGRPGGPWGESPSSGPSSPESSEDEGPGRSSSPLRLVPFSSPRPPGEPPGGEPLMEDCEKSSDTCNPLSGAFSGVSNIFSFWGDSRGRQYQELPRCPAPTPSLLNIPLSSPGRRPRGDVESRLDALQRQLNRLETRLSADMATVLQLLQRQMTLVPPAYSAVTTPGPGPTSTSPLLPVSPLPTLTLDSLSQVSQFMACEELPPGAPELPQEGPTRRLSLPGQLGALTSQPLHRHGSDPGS", "test": "primary screen, population patch clamp on CHO cells stably expressing hERG", "units": {"hERG current change (%, negative = inhibition) at 10uM": "%"}, "values": [{"smiles": "Cc1ccc(Cl)cc1NS(=O)(=O)c1c(C)[nH]c(=O)[nH]c1=O", "hERG current change (%, negative = inhibition) at 10uM": -2.22}, {"smiles": "COC(=O)c1cccc(NC(=O)c2cccc(N3C(=O)CCC3=O)c2)c1", "hERG current change (%, negative = inhibition) at 10uM": -4.33}, {"smiles": "Cc1onc(-c2ccccc2)c1CNS(=O)(=O)c1ccccc1", "hERG current change (%, negative = inhibition) at 10uM": -3.92}, {"smiles": "COc1cc(C(=O)NC(=S)Nc2ccc(Cl)c(C(=O)O)c2)cc(OC)c1OC", "hERG current change (%, negative = inhibition) at 10uM": 5.11}, {"smiles": "COc1cccc(CNC23CC4CC(CC(C4)C2)C3)c1OCc1ccccc1.Cl", "hERG current change (%, negative = inhibition) at 10uM": -50}, {"smiles": "CC(C)Cn1c(SCC(=O)Nc2ncccn2)nc2ccccc21", "hERG current change (%, negative = inhibition) at 10uM": -2.51}, {"smiles": "Cc1ccc(S(=O)(=O)N2CCOC2CNC(=O)C(=O)NCC(C)C)cc1", "note": "(centres unmarked)", "hERG current change (%, negative = inhibition) at 10uM": -14}, {"smiles": "CCCNNC(=O)C(O)(c1ccccc1)c1ccccc1", "hERG current change (%, negative = inhibition) at 10uM": 19.7}, {"smiles": "N#Cc1ccccc1S(=O)(=O)N1CCN(C(=O)[C@@H]2CCCN2C(=O)c2cccs2)CC1", "hERG current change (%, negative = inhibition) at 10uM": -5.03}, {"smiles": "Cc1cccc(NC(=O)Cn2cc([N+](=O)[O-])cn2)n1", "hERG current change (%, negative = inhibition) at 10uM": 9.91}, {"smiles": "O=C(NCCN1C(=O)S/C(=C\\c2ccc(Cl)c([N+](=O)[O-])c2)C1=O)C1=COCCO1", "hERG current change (%, negative = inhibition) at 10uM": -10.2}, {"smiles": "COC(=O)C1=CN(Cc2ccc(OC)cc2)C=C(C(=O)OC)C1c1cccs1", "hERG current change (%, negative = inhibition) at 10uM": 2.23}, {"smiles": "Cc1c(C(=O)N2CCN(c3ccccc3F)CC2)sc2nc(-c3ccccc3)cn12", "hERG current change (%, negative = inhibition) at 10uM": -14.1}, {"smiles": "COc1ccc(/C=C/C(=O)NC(=S)NNC(=O)Cc2cccs2)cc1OC", "hERG current change (%, negative = inhibition) at 10uM": 17.9}, {"smiles": "Cc1cc(OCC(=O)NCCc2c[nH]c3ccccc23)c2c(C)c(C)c(=O)oc2c1", "hERG current change (%, negative = inhibition) at 10uM": 3.37}, {"smiles": "COC(=O)c1cnn2c(C(F)(F)F)cc(-c3ccccc3)nc12", "hERG current change (%, negative = inhibition) at 10uM": -3.12}, {"smiles": "O=C(C1CC(=O)N(c2ccccc2)C1)N1CCN(c2ccc(F)cc2)CC1", "note": "(centres unmarked)", "hERG current change (%, negative = inhibition) at 10uM": -56.7}, {"smiles": "COc1cccc(C(=O)NCCS(=O)(=O)N2CCc3ccccc3C2)c1", "hERG current change (%, negative = inhibition) at 10uM": -16.2}, {"smiles": "C=CCSc1nc(N)c2c3c(sc2n1)CN(C)CC3", "hERG current change (%, negative = inhibition) at 10uM": -28.6}, {"smiles": "COc1cccc2c(=O)c3ccccc3oc12", "hERG current change (%, negative = inhibition) at 10uM": 6.18}, {"smiles": "CN1C(=O)C(C)(C)c2cc(S(=O)(=O)NCc3ccc(C(=O)NCc4ccco4)cc3)ccc21", "hERG current change (%, negative = inhibition) at 10uM": -4.43}, {"smiles": "COc1cccc(CN2CCNCC2)c1OC", "hERG current change (%, negative = inhibition) at 10uM": 9.21}, {"smiles": "O=C(CN1CCN(Cc2ccccc2)CC1)Nc1ccc(N2CCOCC2)cc1", "hERG current change (%, negative = inhibition) at 10uM": -3.67}, {"smiles": "O=C(NNc1nc(-c2ccc(F)cc2)cs1)c1ccccc1", "hERG current change (%, negative = inhibition) at 10uM": 4.96}, {"smiles": "Cc1c(OCC(N)=O)ccc2c(-c3ccccc3)cc(=O)oc12", "hERG current change (%, negative = inhibition) at 10uM": 5.53}, {"smiles": "CCCOc1ccc(-c2nnc(-c3ccncc3)o2)cc1", "hERG current change (%, negative = inhibition) at 10uM": -2.27}, {"smiles": "O=C(NNC(=O)c1cccnc1)Nc1cccc2ccccc12", "hERG current change (%, negative = inhibition) at 10uM": 13.4}, {"smiles": "Cc1cnc(C(=O)Nc2ccc(N3CCOCC3)cc2)cn1", "hERG current change (%, negative = inhibition) at 10uM": 9.4}, {"smiles": "COc1cc(CNC2CCCC2)cc(Br)c1OCC(=O)Nc1ccccc1C", "hERG current change (%, negative = inhibition) at 10uM": -1.01}, {"smiles": "CCCS(=O)(=O)N1CCC(C(=O)N2CCC(Cc3ccccc3)CC2)CC1", "hERG current change (%, negative = inhibition) at 10uM": -63}, {"smiles": "COc1ccccc1-n1c(SCC(=O)N2CCCCC2)nnc1-c1ccccc1O", "hERG current change (%, negative = inhibition) at 10uM": -12.1}, {"smiles": "Cc1ccccc1-n1ncc2c1CC(C)(C)CC2NC(=O)CCC(F)(F)F", "note": "(centres unmarked)", "hERG current change (%, negative = inhibition) at 10uM": -3.52}, {"smiles": "COCc1ccc(C(=O)N2CCC(CCC(=O)Nc3cccc(C)c3)CC2)s1", "hERG current change (%, negative = inhibition) at 10uM": -15.1}, {"smiles": "Cc1noc(C)c1C(=O)NC(C)C12CC3CC(CC(C3)C1)C2", "note": "(centres unmarked)", "hERG current change (%, negative = inhibition) at 10uM": 3.87}, {"smiles": "COc1ccc(NC(C)=O)cc1S(=O)(=O)NC1CCSc2ccccc21", "note": "(centres unmarked)", "hERG current change (%, negative = inhibition) at 10uM": -23}, {"smiles": "COCCNC(=O)CN(c1ccc(C)cc1)S(=O)(=O)c1ccc(SC)cc1", "hERG current change (%, negative = inhibition) at 10uM": -31.7}, {"smiles": "CNC(=O)NC(=O)COC(=O)c1cccc(S(=O)(=O)N2CC3(C)CC2CC(C)(C)C3)c1", "note": "(centres unmarked)", "hERG current change (%, negative = inhibition) at 10uM": -14.4}, {"smiles": "CCOCCCNC(=O)CCc1nnc2ccc(N3CCCCC3)nn12", "hERG current change (%, negative = inhibition) at 10uM": 11.1}, {"smiles": "CN=c1scc(-c2ccc([N+](=O)[O-])cc2)n1/N=C/c1ccco1", "hERG current change (%, negative = inhibition) at 10uM": 11.6}, {"smiles": "O=C(COc1ccc2ccccc2c1Br)NNC(=O)Nc1ccccc1", "hERG current change (%, negative = inhibition) at 10uM": 0.428}, {"smiles": "COc1cccc(N2C(=O)CC(N3CCc4ccccc4C3)C2=O)c1", "note": "(centres unmarked)", "hERG current change (%, negative = inhibition) at 10uM": 13.1}, {"smiles": "Cc1cccc(N(O)C(=O)Nc2cccc(Cl)c2)c1", "hERG current change (%, negative = inhibition) at 10uM": 13.5}, {"smiles": "O=C(O)c1cnc(-c2ccccc2)nc1Sc1cccc(Cl)c1", "hERG current change (%, negative = inhibition) at 10uM": 26.7}, {"smiles": "COC(=O)C1=C[C@@H](C(=O)OC)[C@@H]2C3=C(C(=O)[C@]2(C)NC(=O)c2ccccc2)[C@H](C)n2c(=O)n(C)c(=O)n2[C@@H]3C1", "hERG current change (%, negative = inhibition) at 10uM": 0.851}, {"smiles": "Cl.O=C(NCCN1CCCC1)c1ccc(Cl)cc1Cl", "hERG current change (%, negative = inhibition) at 10uM": -1.56}, {"smiles": "COC(=O)c1nc(C(=O)OC)c(C(=O)OC)nc1C(=O)OC", "hERG current change (%, negative = inhibition) at 10uM": 11}, {"smiles": "O=C(NCc1ccccc1Cl)C1CCN(S(=O)(=O)N2CCOCC2)CC1", "hERG current change (%, negative = inhibition) at 10uM": 12.9}, {"smiles": "Cc1cc(C)c(S(=O)(=O)c2ccc(Cl)cc2C)c(Cl)n1", "hERG current change (%, negative = inhibition) at 10uM": 9.65}, {"smiles": "Cc1noc(C)c1CSCC(=O)OCC(=O)Nc1sccc1C#N", "hERG current change (%, negative = inhibition) at 10uM": -17.9}, {"smiles": "CN(C)c1ccc(/C=C/c2nc3ccccc3c(=O)n2CCO)cc1", "hERG current change (%, negative = inhibition) at 10uM": 4.2}, {"smiles": "CCOCCn1c(N2CCCC2)nc2c1c(=O)[nH]c(=O)n2C", "hERG current change (%, negative = inhibition) at 10uM": 15.1}, {"smiles": "CC(=O)Nc1ccc(NC(=O)C2CCCN2C(=O)NC2CCCCC2)cc1", "note": "(centres unmarked)", "hERG current change (%, negative = inhibition) at 10uM": 12.5}, {"smiles": "CCCn1c(=O)c(C(=O)NCCc2ccc(OC)c(OC)c2)c(O)c2ccccc21", "hERG current change (%, negative = inhibition) at 10uM": 10.5}, {"smiles": "O=C(Nc1cccc(S(=O)(=O)N2CCCCC2)c1)Nc1ccc(Cl)cc1Cl", "hERG current change (%, negative = inhibition) at 10uM": 7.77}, {"smiles": "CCOC(=O)c1c(NC(C)=O)sc2c(O)c(Br)cc(Br)c12", "hERG current change (%, negative = inhibition) at 10uM": -2.63}, {"smiles": "C=CCc1ccc(OCC(O)CN2CCC(Cc3ccccc3)CC2)c(OC)c1.Cl", "note": "(centres unmarked)", "hERG current change (%, negative = inhibition) at 10uM": -77.5}]}]}
